Assay results reported in ChEMBL document CHEMBL4888484, “Replenishing the malaria drug discovery pipeline: Screening and hit evaluation of the MMV Hit Generation Library 1 (HGL1) against asexual blood stage Plasmodium falciparum ,using a nano luciferase reporter read-out” (2022).
Hit rate of the full screen: of about 150,000 compounds, about 540 (0.36%) showed an effect of 50% or more. Some of the results follow.

The molecules below were run on Plasmodium falciparum (assay: Primary screen in NF54 nanoGlo assay, in single point, at 2uM, 72h; a lower Z score goes with more inhibition). Settings: timepoint 72 hour.
Assay type: functional, Erythrocyte

Compound | % Inhibition | Z score
O=C(NCc1ccc(Cn2ccnc2)cc1)c1ccccc1O | -2% | 0.3
Cn1cc(-c2noc(C3CC(O)(C4CCCCC4)C3)n2)nn1 (stereo not given) | -16% | 2.53
COCC(=O)N[C@@H](CC1CCC1)c1ccccc1 | -8% | 1.26
CC(C)c1ncc(C(=O)NCCc2csc(N3CCCC3)n2)s1 | -14% | 1.92
Cc1cc(F)ccc1C1CCN(c2ccc(C(=O)N(C)C)nn2)CC1 | 3% | -0.47
C[C@]1(O)CCCN(Cc2cc3cc4c(cc3nc2-c2ccc(Cl)cc2)OCO4)C1 | -4% | 0.46
COc1ccc(C)cc1CN1C(=O)N[C@](C)(c2ccccn2)C1=O | -5% | 0.64
COc1ccc(NC(=O)CN2C(=O)CCc3cc(S(=O)(=O)N4CCCC4)ccc32)cc1Cl | -8% | 1.59
CCCCNC(=O)N1CC(C(=O)NCCc2ccc(OC)cc2)CCC1c1ccccc1 (stereo not given) | 12% | -1.4
O=C(Nc1nccn(C2CC2)c1=O)[C@H]1CC[C@@H](c2ccccc2)O1 | -41% | 4.81
COc1ccc2cc(-c3nc(CCN(C)C(=O)c4ccc(C)cc4)no3)[nH]c2c1 | -8% | 1.58
CCOc1ccc(NC(=O)Cn2nc3c(N4CCCCC4)nc4ccccc4n3c2=O)cc1 | 4% | -0.61
CC(=O)N1C[C@@H]2C[C@H](NC(=O)Cc3cccc(F)c3)CN2C(=O)[C@@H]1C | -26% | 2.28
CC(C)CN1C(=O)[C@]2(CC(=O)Nc3[nH]ncc32)c2cccc(Cl)c21 | -1% | 0.12
CC1CC(N2CCOC(c3nc(-c4ccccc4)cs3)C2)C(=O)O1 (stereo not given) | -13% | 1.8
Cc1ccc(C(C)C)c(Oc2ccc(Cl)cc2NC(=O)c2cc(Br)cc(Br)c2O)c1 | -8% | 1.13
COCC(=O)NC1CN(S(=O)(=O)c2ccc3c(c2)OCCCO3)C1 | -3% | 0.59
COC1CC(NC(=O)NC(C)C2CCC(F)(F)CC2)C12CCC2 (stereo not given) | -3% | 0.48
CN(CCO)c1ccc(-c2cnn(C)c2)nn1 | 2% | -0.2
C[C@@H](COCC1CC1)NC(=O)c1c2ccccc2nn1C | -5% | 0.86
CC(=O)NCCCNC(=O)COc1cccc(Cl)c1C | -9% | 1.49
O=C1NCC2(CN(C(=O)c3cn4cc(Cl)cc(Cl)c4n3)C2)O1 | -5% | 0.71
CCC[C@H](C)NC(=O)Cc1cccc(F)c1 | -8% | 1
COc1ccccc1CCNC(=O)C1CN(C(=O)c2cccs2)C1 | -9% | 1.47
Cc1ccn(CCC(=O)N[C@@H](C)c2nncn2C2CCCC2)n1 | -10% | 0.94
COc1ccc(CCNc2nc3c(c(=O)[nH]2)CCC3)cc1OC | -9% | 1.24
Cc1ccc(S(=O)(=O)CCc2ccncc2)cc1 | -2% | 0.16
C[C@H]1CN(C(=O)c2cc(F)cc3nccnc23)CCN1 | -10% | 1.14

Compound | % Inhibition | Z score
CN(C)c1cnc(C(=O)N2CCN(Cc3ccccc3)C(C)(C)C2)cn1 | -13% | 2.19
NC(=NCc1cccc2cccnc12)N1CCN(c2nccs2)CC1 | 57% | -10.38
O=C(NCCN1CCCCC1)c1nc(Cc2ccccc2)n(-c2ccccc2)n1 | -13% | 1.8
CCc1ccc([C@@H]2CCCCN2C(=O)c2cn(CC(F)(F)F)nc2C)o1 | 10% | -1.33
C[C@](O)(CNc1ncnc(N)c1Cl)C1CC1 | -3% | 0.64
CN=C(NCc1cccs1)NCc1ncc(C)s1 | 8% | -0.95
CC(C)n1cnnc1CN(C)c1cc([C@H]2CCOC2)ncn1 | -12% | 2.22
COc1cccc(S(=O)(=O)N2CCC(c3cc(N)on3)CC2)c1 | 19% | -2.95
O=C(CCS(=O)(=O)c1ccccc1)N1C[C@H]2CC[C@@H](C1)N(CC1CC1)C2 | -6% | 0.77
C=CCNC(=O)C(=O)NCc1ccc(F)cc1 | -11% | 1.47
Cc1nc(C)c(-c2ccc([C@H](C)N(C)C)cc2)s1 | -8% | 1.48
CC1OCCC1C(=O)NC(C(N)=O)c1ccc(F)cc1 (stereo not given) | -2% | 0.33
N#Cc1nc(N)n(CCNC(=O)C2CCCC2)c1C#N | -16% | 1.77
CCn1cncc1CN1CCn2nc(C#N)cc2C1 | 6% | -1.11
COc1ccc2c(c1)[n+](CC(=O)c1ccc(-c3ccc(Br)cc3)cc1)c(CO)n2C | 70% | -5.57
CCS(=O)(=O)Cc1noc(-c2cc(-c3ccccc3)no2)n1 | -6% | 1.11
Cn1ccnc1-c1ccc(C(=O)N2CC[C@@H](O)C2)cc1 | -6% | 0.82
O=C(c1cccc(F)c1)N1Cc2ccccc2-c2ccccc2C1=O | -5% | 0.86
CNC(=O)C1CCN(c2nc3ncn(CC(=O)Nc4ccc5c(c4)OCO5)c(=O)c3s2)CC1 | -19% | 1.64
COc1ccccc1NC(=O)N1CCc2nc(NC(=O)c3ccco3)sc2C1 | -4% | 0.62
Cc1nc2c(ccc3ccccc32)c(O)c1CN1CCOCC1 | 3% | -0.34
COc1ccc(C[C@H]2CCOC3(CCNCC3)C2)cc1 | 5% | -0.62
Cc1cc(C(=O)N2CC[C@@](O)(C3CCOCC3)[C@H](C)C2)sc1C | -5% | 1.07
O=C(Cn1ccc2ccccc21)O[C@@H](c1ccccc1)c1ccccn1 | 16% | -1.83
CCC(C(=O)NC1CCCC(OC(=O)Nc2ccc(F)cc2)C1)c1ccccc1 (stereo not given) | -21% | 3.95
Cc1n[nH]c(C)c1[C@@H](C)CC(=O)NCc1cc(Cl)c2c(c1)OCO2 | -7% | 0.91
C#CCNC(=O)C1CCCC1C(=O)NCC#C (stereo not given) | -1% | 0.08
